Values joined by “and” are separate entries in the source; they are usually repeats but may differ in a detail not shown here. Equal values may be shown once. The shares of active, inactive and inconclusive entries below differ from those in the screen. For some assays here: Potencies of inconclusive entries are doubtful fits and often do not repeat. The source holds several records for some structures; these can differ, active in one and inactive in another. Active and inactive are the calls of the source. Unless noted, calls follow the shape of the full dose curve.
Columns and labels:
[1] = qHTS assay for small molecule agonists of the p53 signaling pathway (AID 651631); conditions: HCT-116 p53RE-bla reporter, beta-lactamase FRET ratio, 16 h; activation: at 73.3 µM (top of the series) unless noted; also: nearly all actives have a fitted effect of over 15% in size
Outline: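 HCT-116 p53RE-bla reporter line, 16 h compound treatment at 37 °C, then fluorescence after 2 h with B/G FRET substrate.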

[2] = qHTS assay for small molecule agonists of the p53 signaling pathway - cell viability (AID 651633); also: nearly all actives have a fitted effect of over 30% in size
Outline: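 Viability counter-read: CellTiter-Glo luminescence (30 min, room temperature) in the same p53RE-bla plates. These plates had been exposed to compounds for 16 h at 37 C.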

[3] = qHTS assay for small molecule disruptors of the mitochondrial membrane potential - cell viability (AID 720634); also: nearly all actives have a fitted effect of over 20% in size;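 as to activity change, negative = cytotoxicity: human HepG2 liver cancer cells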
Outline: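 After overnight attachment at 37 C, HepG2 cells received compound or DMSO vehicle for 1 hr. Viability is then taken from ATP-driven luminescence following a 30 min room-temperature CellTiter-Glo step.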

[4] = qHTS assay for small molecule disruptors of the mitochondrial membrane potential (AID 720635; active = well fitted curve in the direction sought with a large enough effect in the repeat runs; inconclusive = weak or mixed curves; inactive = no such curve, though single readings can be large; an effect the other way counts as inactive or inconclusive); conditions: HepG2 mitochondrial membrane potential, Mito-MPS dye ratio; series mostly up to 83.2 µM
Outline: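 Mitochondrial membrane potential tracked with Mito-MPS dye, red aggregates (ex 540/em 590 nm) against green monomers (ex 490/em 535 nm). Compound treatment 1 hr at 37C, dye 30 min in HepG2.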

[5] = target: Glucocorticoid receptor (Homo sapiens) (UniProt P04150); experiment: qHTS assay to identify small molecule agonists of the glucocorticoid receptor (GR) signaling pathway (AID 720691; active = well fitted activation curve with a large enough effect in the signal ratio in the repeat runs, not every such curve was filed as active; inconclusive = weak or mixed curves, or effect the other way; inactive = no such curve, though single readings can be large or run the other way; the % refers to the signal ratio); conditions: GR-bla HeLa, beta-lactamase reporter ratio, 18 h; activation: at 62.4 µM (top of the series) unless noted
Outline: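 Agonist mode in a HeLa line carrying a GRE-controlled beta-lactamase reporter. Compounds act for 18 h at 37 C before a 2 h room-temperature FRET substrate step and fluorescence reading.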

[6] = target: Glucocorticoid receptor (Homo sapiens) (UniProt P04150); experiment: qHTS assay to identify small molecule antagonists of the glucocorticoid receptor (GR) signaling pathway (AID 720692; active = well fitted inhibition curve with a large enough effect in the signal ratio in the repeat runs, not every such curve was filed as active; inconclusive = weak or mixed curves, or effect the other way; inactive = no such curve, though single readings can be large or run the other way; the % refers to the signal ratio); conditions: GR-bla HeLa, beta-lactamase FRET ratio, dexamethasone-stimulated, 18 h; series mostly up to 58.5 µM
Outline: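 Cells plated, rested 4 h at 37 C/5% CO2; compounds in DMSO pin-transferred; dexamethasone added to 5 nM final; 18 h at 37 C; B/G FRET substrate added, 2 h room temperature; fluorescence measured.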

[7] = qHTS assay to identify small molecule antagonists of the glucocorticoid receptor (GR) signaling pathway - cell viability counter screen (AID 720693; active = well fitted curve in the direction sought with a large enough effect in the repeat runs; inconclusive = weak or mixed curves; inactive = no such curve, though single readings can be large; an effect the other way counts as inactive or inconclusive; also: nearly all actives have a fitted effect of over 55% in size); conditions: GR-bla HeLa viability, CellTiter-Glo luminescence, 18 h, with 5 nM dexamethasone present; series mostly up to 58.5 µM
[8] = qHTS assay to identify small molecule antagonists of the androgen receptor (AR) signaling pathway - cell viability counter screen (AID 743033; active = well fitted curve in the direction sought with a large enough effect in the repeat runs; inconclusive = weak or mixed curves; inactive = no such curve, though single readings can be large; an effect the other way counts as inactive or inconclusive; also: nearly all actives have a fitted effect of over 45% in size); conditions: AR-bla HEK293 viability, CellTiter-Glo luminescence, 16 h; activity change, negative = cytotoxicity: at 58.5 µM (top of the series)
[9] = qHTS assay for small molecules that induce genotoxicity in human embryonic kidney cells expressing luciferase-tagged ATAD5 - cell viability (AID 651634); also: nearly all actives have a fitted effect of over 25% in size
Outline: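 Cytotoxicity counterscreen in HEK293T cells bearing an ATAD5-luciferase reporter: live-cell protease activity measured by CellTiter-Fluor fluorescence after 15.5 hr compound exposure.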

[10] = qHTS assay for identifying genotoxic compounds that show differential cytotoxicity against isogenic chicken DT40 cell lines with known DNA damage response pathways - wild type cell line (AID 743012; active = well fitted curve in the direction sought with a large enough effect in the repeat runs; inconclusive = weak or mixed curves; inactive = no such curve, though single readings can be large; an effect the other way counts as inactive or inconclusive; also: nearly all actives have a fitted effect of over 60% in size); conditions: DT40 wild type chicken cells viability, CellTiter-Glo, 40 h; activity change, negative = cytotoxicity: at 68.4 µM (top of the series) unless noted
Outline: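 Cells (DT40 wild type, 300/well) are treated with DMSO-dissolved compounds after a ~0.5 h pre-incubation and kept 40 h at 37 C/5% CO2. Viability is then measured by CellTiter-Glo luminescence following 30 min at room temperature.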
Potency is read from the fitted curve at half-maximal effect; tags tell the direction and shape of the fitted curve or compound fluorescence and quenching.

UniProt P04150, sequence (P04150 whole entry, looked up): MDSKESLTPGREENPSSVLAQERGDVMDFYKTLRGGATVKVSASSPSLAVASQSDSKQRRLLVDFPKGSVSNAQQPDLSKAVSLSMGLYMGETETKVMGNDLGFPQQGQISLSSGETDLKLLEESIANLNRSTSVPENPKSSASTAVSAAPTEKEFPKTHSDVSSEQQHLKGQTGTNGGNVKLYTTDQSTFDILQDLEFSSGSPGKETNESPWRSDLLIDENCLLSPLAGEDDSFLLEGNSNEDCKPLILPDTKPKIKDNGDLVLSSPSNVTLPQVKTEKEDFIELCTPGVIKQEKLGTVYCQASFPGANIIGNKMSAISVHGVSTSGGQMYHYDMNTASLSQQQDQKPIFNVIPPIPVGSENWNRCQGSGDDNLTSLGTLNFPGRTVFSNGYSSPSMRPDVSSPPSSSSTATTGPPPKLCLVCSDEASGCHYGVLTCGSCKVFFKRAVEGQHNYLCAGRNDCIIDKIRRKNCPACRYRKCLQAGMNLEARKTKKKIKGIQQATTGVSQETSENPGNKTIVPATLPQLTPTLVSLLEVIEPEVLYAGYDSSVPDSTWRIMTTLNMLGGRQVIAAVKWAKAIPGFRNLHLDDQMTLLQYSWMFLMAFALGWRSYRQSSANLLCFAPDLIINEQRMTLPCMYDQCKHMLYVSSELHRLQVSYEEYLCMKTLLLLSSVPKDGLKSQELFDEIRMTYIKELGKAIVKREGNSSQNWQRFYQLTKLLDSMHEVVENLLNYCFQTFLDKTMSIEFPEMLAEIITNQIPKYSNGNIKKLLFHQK

Structure (SMILES)	Potency [1]	Potency [2]	Potency [3]	Potency [4]	Potency [5]	Potency [6]	Potency [7]	Potency [8]	Potency [9]	Potency [10]
O=[N+]([O-])/C=C/c1ccccc1	active: 2.47 µM and active: 2.43 µM	inconclusive: 34.9 µM [cytotoxic, single point] and inconclusive: 68.6 µM [cytotoxic, single point]	active: 62.1 µM	inconclusive: 3.11 µM [activator, full curve] and inconclusive: 21.7 µM [activator, partial curve]	inconclusive: 22.2 µM and inconclusive: 19.5 µM [inhibitor, single point]	active: 15.7 µM and active: 17.4 µM	inconclusive: 35.2 µM [cytotoxic, partial curve, poor fit] and inconclusive: 11 µM [cytotoxic, full curve]	inconclusive: 14 µM [cytotoxic, full curve] and inconclusive: 21.9 µM [cytotoxic, partial curve, poor fit]		
O=C1c2ccccc2C(=O)C1C(=O)C(c1ccccc1)c1ccc(Cl)cc1 (stereo not drawn)	inconclusive: 54.5 µM [cytotoxic, partial curve]	active: 24.3 µM	active: 61.1 µM			active: 12.3 µM	active: 19.5 µM		active: 3.06 µM	
CC(C)(c1ccccc1)c1ccc(O)cc1	inconclusive: 60.6 µM [falling, partial curve] and inconclusive: 54.5 µM [falling, partial curve]	inconclusive: 68 µM [cytotoxic, single point] and inconclusive: 54.5 µM [cytotoxic, partial curve, poor fit]	active: 48.2 µM and inactive	active: 3.04 µM and active: 3.86 µM	inconclusive: 54.5 µM [cytotoxic, single point] and inconclusive: 61.6 µM	active: 48.6 µM and active: 54.9 µM	inconclusive: 61.6 µM [cytotoxic, single point]	active: 38.6 µM and active: 49 µM		inconclusive: 76.3 µM [cytotoxic, single point]

Reference: PubChem BioAssay (Tox21)
